The values that follow come from PMC4949421.

Sequences of proteins named here, by UniProt entry; tags and fusion partners are left off. Residues count along the entry.
UniProt P18564, residues 22-788: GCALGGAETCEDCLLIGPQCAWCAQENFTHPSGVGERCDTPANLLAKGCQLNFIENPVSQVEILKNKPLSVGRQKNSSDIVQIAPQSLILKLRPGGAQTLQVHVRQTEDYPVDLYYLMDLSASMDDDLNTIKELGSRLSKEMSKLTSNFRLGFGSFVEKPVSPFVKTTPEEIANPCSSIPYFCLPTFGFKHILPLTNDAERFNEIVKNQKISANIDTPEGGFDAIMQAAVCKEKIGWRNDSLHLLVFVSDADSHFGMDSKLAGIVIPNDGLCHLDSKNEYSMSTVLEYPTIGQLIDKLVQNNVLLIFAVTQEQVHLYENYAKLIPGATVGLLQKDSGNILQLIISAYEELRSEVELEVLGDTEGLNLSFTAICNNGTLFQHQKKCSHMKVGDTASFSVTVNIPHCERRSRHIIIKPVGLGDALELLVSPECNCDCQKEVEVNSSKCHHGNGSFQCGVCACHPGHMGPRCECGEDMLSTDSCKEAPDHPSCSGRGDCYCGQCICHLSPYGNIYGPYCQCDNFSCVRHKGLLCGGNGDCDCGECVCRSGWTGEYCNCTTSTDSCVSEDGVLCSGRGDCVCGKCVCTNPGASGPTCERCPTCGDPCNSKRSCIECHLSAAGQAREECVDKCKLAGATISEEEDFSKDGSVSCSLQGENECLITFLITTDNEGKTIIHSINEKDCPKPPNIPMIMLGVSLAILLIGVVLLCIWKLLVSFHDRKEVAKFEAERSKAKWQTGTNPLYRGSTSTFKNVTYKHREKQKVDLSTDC

Results are given in words; binding and its absence hold for the method and conditions named. Binding seen in cells or lysates may run through a third protein. Some results given as binding are weak or reduced against the parent protein; the word gives no strength. Tags and fused reporters may be left off the sequences shown.

Assay [1] concerns the target T1, FLAG-DSP aa183-219 (UniProt P97399).
T1 sequence: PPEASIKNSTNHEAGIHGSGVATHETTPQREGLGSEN
The experiment in a line: co-IP; FLAG-DSP fragments and Myc-integrin β6 co-transfected (293T cells, 48 h, by the results and legend; mDPC6T by the methods); lysis in 50 mM Tris-HCl pH 7.4, 150 mM NaCl, 1 mM EDTA, 1% Triton X-100; anti-FLAG or anti-Myc affinity gel at 4 °C overnight; western blot with anti-FLAG or anti-Myc. (Immunoblotting shows a protein as a band on a membrane.)

Assay [2] concerns the target T2, GST-NH2-terminal DSP aa9-190 (UniProt P97399).
T2 sequence: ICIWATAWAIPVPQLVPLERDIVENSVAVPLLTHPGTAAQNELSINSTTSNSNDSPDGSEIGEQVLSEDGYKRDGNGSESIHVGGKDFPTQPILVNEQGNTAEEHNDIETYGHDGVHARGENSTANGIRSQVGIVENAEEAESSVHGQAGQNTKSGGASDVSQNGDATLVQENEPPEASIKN
The experiment in a line: pull-down; purified GST-DSP fusion protein incubated with lysate of mouse odontoblast-like cells in lysis buffer overnight at 4 °C; glutathione agarose beads; eluted with reduced glutathione; western blot with anti-DSP and anti-β6 antibodies; only the target purified.

The target in assay [3] is T3, GST-DSP aa266-371 (UniProt P97399).
T3 sequence: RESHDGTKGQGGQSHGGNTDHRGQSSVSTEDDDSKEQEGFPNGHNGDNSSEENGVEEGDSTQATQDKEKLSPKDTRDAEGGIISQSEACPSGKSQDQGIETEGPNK
The description is as above.

In assay [4] the target is T4, GST-DSP aa365-456 (UniProt P97399).
T4 sequence: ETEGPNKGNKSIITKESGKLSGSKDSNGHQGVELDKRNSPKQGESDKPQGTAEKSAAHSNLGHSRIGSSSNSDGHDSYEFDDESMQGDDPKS
Described as above.

Assay [5] concerns the target T5, GST-DSP aa266-299 (UniProt P97399).
T5 sequence: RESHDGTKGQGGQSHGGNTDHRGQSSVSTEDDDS
The assay is described as above.

In assay [6] the target is T6, GST-DSP fusion protein (DSP 9-456) (UniProt P97399).
T6 sequence: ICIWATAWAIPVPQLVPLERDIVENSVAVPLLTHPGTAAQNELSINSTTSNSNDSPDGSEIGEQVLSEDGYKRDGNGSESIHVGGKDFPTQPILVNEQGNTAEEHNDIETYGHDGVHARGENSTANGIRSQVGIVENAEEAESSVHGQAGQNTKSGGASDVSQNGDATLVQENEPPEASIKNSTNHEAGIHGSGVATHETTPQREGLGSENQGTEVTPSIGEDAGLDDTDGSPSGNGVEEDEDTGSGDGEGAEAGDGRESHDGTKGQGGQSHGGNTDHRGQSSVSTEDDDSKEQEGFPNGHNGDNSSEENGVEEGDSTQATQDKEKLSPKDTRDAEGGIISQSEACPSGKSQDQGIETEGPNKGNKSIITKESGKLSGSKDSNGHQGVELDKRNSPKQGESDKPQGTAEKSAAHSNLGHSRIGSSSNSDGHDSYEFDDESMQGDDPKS
Described as above.

The target in assay [7] is T7, GST-DSP aa183-219 (UniProt P97399).
T7 sequence: T1 sequence
The assay is described as above.

Assay [8] deals with T8, GST-DSP aa183-295 (UniProt P97399).
T8 sequence: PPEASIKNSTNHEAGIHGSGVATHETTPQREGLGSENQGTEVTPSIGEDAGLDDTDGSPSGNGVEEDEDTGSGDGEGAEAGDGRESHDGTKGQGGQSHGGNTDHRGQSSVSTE
Described as above.

In assay [9] the target is T9, GST-DSP aa214-246 (UniProt P97399).
T9 sequence: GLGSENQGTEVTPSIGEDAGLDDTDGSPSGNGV
The description is as above.

In assay [10] the target is T10, GST-COOH-terminal DSP aa183-456 (UniProt P97399).
T10 sequence: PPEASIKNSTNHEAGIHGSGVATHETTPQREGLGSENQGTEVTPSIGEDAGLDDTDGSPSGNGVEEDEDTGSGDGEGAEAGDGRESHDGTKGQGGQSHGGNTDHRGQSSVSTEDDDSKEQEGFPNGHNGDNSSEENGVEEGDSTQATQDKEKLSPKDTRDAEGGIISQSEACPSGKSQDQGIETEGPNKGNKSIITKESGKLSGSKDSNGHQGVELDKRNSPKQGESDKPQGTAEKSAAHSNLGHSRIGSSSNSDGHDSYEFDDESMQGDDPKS
The description is as above.

Assay [11] deals with T11, GST-DSP aa240-271 (UniProt P97399).
T11 sequence: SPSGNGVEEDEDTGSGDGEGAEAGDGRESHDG
The description is as above.

On to “Myc-integrin β6 (from UniProt P18564 22-788) (receptor)”, for which the binding entry in [1] is “binds”.

B1: integrin β6 (endogenous, mouse odontoblast-like cells) (receptor, UniProt Q9Z0T9 22-787)
chain: GCAWGGAESCSDCLLTGPHCAWCSQENFTHLSGAGERCDTPANLLAKGCQLPFIENPVSRIEVLQNKPLSVGRQKNSSDIVQIAPQSLVLKLRPGREQTLQVQVRQTEDYPVDLYYLMDLSASMDDDLNTIKELGSRLAKEMSKLTSNFRLGFGSFVEKPVSPFMKTTPEEITNPCSSIPYFCLPTFGFKHILPLTDDAERFNEIVRKQKISANIDTPEGGFDAIMQAAVCKEKIGWRNDSLHLLVFVSDADSHFGMDSKLAGIVIPNDGLCHLDHRNEYSMSTVLEYPTIGQLIDKLVQNNVLLIFAVTQEQVHLYENYAKLIPGATVGLLQKDSGNILQLIISAYEELRSEVELEVLGDTEGLNLSFTALCNNGVLFPHQKKCSHMKVGDTASFNVTVSVSNCEKRSRNLIIKPVGLGDTLEILVSAECDCDCQREIETNSSKCHNGNGSFQCGVCTCNPGHMGPHCECGEDMVSTDSCKESPGHPSCSGRGDCYCGQCICHLSPYGSIYGPYCQCDNFSCLRHKGLLCGDNGDCDCGECVCRDGWTGEYCNCTTNRDSCTSEDGVLCSGRGDCVCGKCVCRNPGASGPTCERCPTCGDPCNSKRSCIECYLSADGQAQEECADKCKAIGATISEEDFSKDTSVSCSLQGENECLITFLITTDNEGKTIIHNINEKDCPKPPNIPMIMLGVSLAILLIGVVLLCIWKLLVSFHDRKEVAKFEAERSKAKWQTGTNPLYRGSTSTFKNVTYKHREKHKAGLSSDG
As to B1, the binding entry is given as “no binding” in [2]; “no binding” in assay [3]; “no binding” in assay [4]; “no binding” in [5]; “binds” in assay [6]; “binds” in assay [7]. The binding result in [8] is listed as “binds”; in [9], “no binding”; in [10] it was “binds”; in [11], “no binding”.
